According to PubChem BioAssay AID651820 (National Center for Advancing Translational Sciences (NCATS), 2012):
The campaign covered roughly 340,000 compounds. About 12,000 (3.5%) were called active. Inconclusive means that the source gave no clear call. Such entries were picked first, then a sample of the others. Calls come from the whole dose curve; as a rule, active = well fitted inhibition curve with a large enough effect; inconclusive = small, poorly fitted or top-dose-only effect, or another doubt; inactive = no such curve, though single readings can be large or run the other way. Potencies of inconclusive entries are left out as doubtful fits.

assay: qHTS Assay for Inhibitors of Hepatitis C Virus (HCV); conditions: Huh7.5.1 HCVcc-Cre (HCVcc is cell-culture hepatitis C virus) infection, luciferase reporter, 44 h; activity change, negative = inhibition: at 41.8 µM (top of the series) unless noted
How it was run: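 Infectious HCVcc-Cre (~0.5 moi) was added to cells just after compound, with cells seeded 4 h earlier at 1,000 per well. Luciferase activity after 44 h culture reported infection; substrate was incubated 15 min at room temperature before reading.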
% is set by controls: 0 for no effect and ±100 for the full control effect; potency is the fitted concentration of half-maximal effect; tags give direction and shape of the fitted curve.

SMILES | activity change, negative = inhibition | Potency
Cc1ccc(S(=O)(=O)NCCc2nnc3ccc(SCC(=O)Nc4nc(C)cs4)nn23)cc1 | inactive: -5.37% | 
CCCCn1c(N)c(N(CC(C)C)C(=O)c2cc3c(s2)CCC3)c(=O)[nH]c1=O | inconclusive: -68.1% [inhibitor] | 
O=C(c1ccccc1)N1CCC(CC2CC(c3cccc(Br)c3)=NO2)(C(=O)NCC2CCCCC2)CC1 (stereo not given) | inactive: 6.67% | 
OC(COc1ccc2cc(Br)ccc2c1)CN1CCOCC1 (stereo not given) |  | inconclusive [inhibitor, single point]
O=c1[nH]c2cc3c(cc2cc1CN(Cc1cccnc1)C(=S)NCc1ccco1)OCCO3 |  | inconclusive [inhibitor, single point]
COc1ccccc1-c1nc(C(N)=O)c2[nH]c(=O)n(-c3cccc(C)c3)c2n1 |  | inconclusive [inhibitor, single point]
O=C(CCCOc1ccccc1)N1CCN(c2ccccc2)CC1 | inactive: 15.2% | 
CCOC(=O)N1CCC(NC(=O)CSCc2nc(-c3ccc(OC)c(OC)c3)oc2C)CC1 | inactive: -27.2% | 
O=C(Cc1cccs1)Nc1cccc(-c2nc3ccccc3o2)c1 |  | inconclusive [inhibitor, partial curve]
COC(=O)c1c(C)[nH]c(C=Nc2ccc(OC)cc2)c1C | inactive: 22.9% | 
c1ccc(OCc2nn3c(Cn4cnc5ccccc54)nnc3s2)cc1 |  | inconclusive [inhibitor, partial curve]
CC(NS(=O)(=O)CCNC(=O)c1ccccc1)c1ccccc1 (stereo not given) | inactive: -0.0201% | 
COc1ccc(N(CC(=O)N/N=C/c2ccc(-c3ccc([N+](=O)[O-])cc3)o2)S(=O)(=O)c2ccc(C)cc2)cc1 |  | inconclusive [inhibitor, full curve, poor fit]
CCn1ccnc1C(O)c1ccccc1OC (stereo not given) |  | inconclusive [inhibitor, single point]
O=C(NC1CCCCCCC1)c1c(Cl)cccc1Cl | inactive: 6% | 
CC(=O)NCCn1c(SCc2cccc([N+](=O)[O-])c2)nc2ccccc2c1=O |  | inconclusive [inhibitor, single point]
Cc1ccc(S(=O)(=O)N(C)CC(=O)NCC(c2ccc(F)cc2)N2CCOCC2)cc1 (stereo not given) |  | inconclusive [inhibitor, full curve, poor fit]
COc1ccc(C)cc1NC(=O)c1nnn(Cc2cccc(F)c2)c1N |  | inconclusive [inhibitor, full curve, poor fit]
Cc1onc(-c2c(Cl)cccc2Cl)c1C(=O)OCC(=O)c1ccccc1 |  | inconclusive [inhibitor, single point]
Cc1ccc(S(=O)(=O)Nc2cc(=O)[nH]c(SCc3ccccc3Cl)n2)cc1 |  | inconclusive [inhibitor, single point]
Fc1cccc(F)c1-n1c(CN2CCCC2)csc1=S |  | inconclusive [inhibitor, single point]
COCCn1c(SCC(=O)Nc2ccccc2OC)nc2ccccc2c1=O |  | inconclusive [inhibitor, single point]
O=C([O-])c1ccccc1-[n+]1c(-c2ccccc2)cc(-c2ccccc2)cc1-c1ccccc1 | inactive: -8.24% | 
CCNC(=O)N1C(=O)C2(OCCO2)c2cc(Br)ccc21 |  | inconclusive [inhibitor, single point]

SMILES | activity change, negative = inhibition | Potency
CCOc1cc(/C=N/NC(=O)CN2CCOCC2)ccc1OCc1ccccc1 |  | inconclusive [inhibitor, single point]
CCc1ccc(CN2CCC(Oc3ccc(C(=O)N4CCCC4)cc3)CC2)cc1 |  | inconclusive [inhibitor, single point]
O=C(c1cccc(F)c1)N1CCc2ccccc21 |  | inconclusive [inhibitor, partial curve]
CC(C)(C)n1nnnc1C(c1ccccn1)N(Cc1ccccc1)Cc1ccc(Cl)cc1 (stereo not given) |  | inconclusive [inhibitor, single point]
CC(C)(C)c1cc(CCC(=O)NCCc2ccccn2)cc(C(C)(C)C)c1O |  | inconclusive [inhibitor, partial curve]
Cc1ccc(S(=O)(=O)N2CCN(C(=O)COC(=O)C3(C)CC3(Cl)Cl)CC2)c(C)c1 (stereo not given) |  | inconclusive [inhibitor, single point]
COc1cccc(OC)c1OCCN1CCN(C(c2ccccc2)c2ccccc2)CC1 |  | inconclusive [inhibitor, partial curve]
COc1ccc2c(c1OC)C(=O)N(C(C)C(=O)O)C2=O (stereo not given) | inactive: 7.04% | 
CSc1ccccc1NC(=O)Nc1ccc(Cl)cc1 | inactive: -23.3% | 
CCOC(=O)c1c(-c2ccccc2)oc2cc(Br)c(O)cc12 |  | inconclusive [inhibitor, partial curve]
O=C(NC1=NCCS1)c1sc2cc(F)ccc2c1Cl | inactive: -6.69% | 
CN(Cc1ccccc1)S(=O)(=O)c1ccc(Cl)c(C(=O)NCCc2ccccn2)c1 |  | inconclusive [inhibitor, single point]
COc1cc(-c2cc(C(=O)N3CCCCCC3)c3ccccc3n2)cc(OC)c1OC |  | inconclusive [inhibitor, full curve, poor fit]
COc1cc(C(=O)Nc2ccc(C)c(S(=O)(=O)N(C)C)c2)ccc1OCC(=O)N1CCOCC1 |  | inconclusive [inhibitor, partial curve]
CN1CCc2c(sc3c2c(=O)n(-c2cccc(Cl)c2)c2nncn32)C1 |  | inconclusive [inhibitor, single point]
CC1(C)C=Cc2c(c3c(c4c(=O)c(-c5ccc(O)cc5)coc24)OC(C)(C)CC3)O1 | inactive: -60.5% | 
CCC(C)(C)n1nnnc1C(c1cccs1)N1CC=C(c2ccc(F)cc2)CC1 (stereo not given) |  | inconclusive [inhibitor, single point]
CCC(C(=O)OCC(=O)C1(O)CCC2C3CCC4=CC(=O)CCC4(C)C3C(O)CC21C)C(C)C (stereo not given) |  | inconclusive [inhibitor, single point]
CCN(CC)C(=O)C1CCCN(c2ncnc3c2cnn3-c2cccc(C)c2)C1 (stereo not given) |  | inconclusive [inhibitor, single point]
Cc1cccc(CC(C)NC(=O)c2oc3c(F)cccc3c2C)n1 (stereo not given) |  | inconclusive [inhibitor, single point]
Brc1ccc(-c2csc(/N=C/N3CCOCC3)n2)cc1 |  | inconclusive [inhibitor, single point]
O=c1cc(/C=C/c2cccs2)[nH]c2ccccc12 |  | inconclusive [inhibitor, partial curve]
CC1CC(C)C(=NNC(N)=O)C(C(O)CC2CCC(=O)NC2=O)C1 (stereo not given) |  | active: 10 µM
CCN1CCN(C(=O)c2cc(COc3ccc4ncccc4c3)on2)CC1 |  | active: 11.2 µM

SMILES | activity change, negative = inhibition | Potency
CCCSc1nnc(NC(=O)c2ccco2)s1 | inactive: 14.5% | 
O=C(OCCc1ccccc1)c1cc(O)c(O)c(O)c1 |  | inconclusive [inhibitor, partial curve]
COC(=O)c1c(-c2ccc(OC)cc2)sc2ccc(OC)cc12 |  | inconclusive [inhibitor, single point]
COc1ccc(OC(C)C(=O)NC2CC(C)(C)NC(C)(C)C2)cc1 (stereo not given) | inactive: -6.04% | 
C=C[C@@H]1c2cc(C)ccc2N(S(=O)(=O)c2ccc(C)cc2)[C@H](c2ccc(OC(C)=O)cc2)C1(C#N)C#N |  | active: 8.91 µM
CN(CCC#N)C(=O)c1cc2c(s1)-c1ccccc1SC2 |  | inconclusive [inhibitor, single point]
COCCCNCCOc1ccc(C(C)(C)c2ccccc2)cc1 |  | active: 10 µM
c1ccc(-c2cccc(-c3ccccn3)n2)nc1 |  | active: 5.62 µM
C[C@H](NS(=O)(=O)c1ccccc1)C(=O)OCC(=O)NC(=O)Nc1ccc2c(c1)OCCO2 | inactive: 12.8% | 
CN(Cc1ccc2ccccc2c1)C(=O)c1ccc(C(F)(F)F)cc1 | inactive: 2.2% | 
COc1ccccc1C(=O)NCCC(=O)N(C)CC(=O)Nc1c(Cl)cccc1Cl |  | inconclusive [inhibitor, single point]
COc1ccc(CCN2C(=O)CS/C2=N\NC(=O)c2ccc(C(C)(C)C)cc2)cc1OC |  | inconclusive [inhibitor, single point]
COCCn1c(SCC(=O)Nc2ccccc2)nc2c(oc3ccccc32)c1=O | inactive: -2.97% | 
c1ccc(-c2cn3nc(-c4ccccc4)sc3n2)cc1 |  | inconclusive [inhibitor, single point]
Cc1nc(-c2ccc(C(=O)Nc3ccc(F)cc3)cc2)cs1 |  | inconclusive [inhibitor, single point]
CCc1ccccc1NC(=O)Nc1cccn(Cc2ccc(F)cc2)c1=O |  | inconclusive [inhibitor, partial curve, poor fit]
COc1ccc(C(C)NC(=O)Nc2ccc(C(C)=O)cc2)cc1OC (stereo not given) |  | inconclusive [inhibitor, single point]
O=[N+]([O-])c1nn(-c2ccccc2)n(O)c1=NCCc1ccccc1 |  | active: 11.2 µM
CCOC(=O)c1sc(C)c2c1NC1(CCCCC1)NC2=O |  | inconclusive [inhibitor, full curve, poor fit]
CCCCCSc1nnc2c(n1)OC(c1cccn1C)N(C(C)=O)c1ccccc1-2 (stereo not given) |  | inconclusive [inhibitor, partial curve]
Cc1cc(NC(c2ccc(Cl)cc2)c2ccc3cccnc3c2O)no1 (stereo not given) |  | active: 2.51 µM
COc1cccc(OC)c1C(=O)OCC(=O)Nc1ccc(OC(F)(F)F)cc1 |  | inconclusive [inhibitor, full curve]
